Publication PMC4336329 (PLoS ONE, 2015)
In all, about 310,000 compounds went through this assay and about 2,200 (0.71%) showed an effect of 50% or more. Effects have a minus sign here. Some of the results follow.

Molecular target: human ether-à-go-go-related gene (hERG) potassium channel (human, UniProt Q12809)
Experiment: primary screen, population patch clamp on CHO cells stably expressing hERG

human ether-à-go-go-related gene (hERG) potassium channel, sequence (Q12809 whole entry, looked up): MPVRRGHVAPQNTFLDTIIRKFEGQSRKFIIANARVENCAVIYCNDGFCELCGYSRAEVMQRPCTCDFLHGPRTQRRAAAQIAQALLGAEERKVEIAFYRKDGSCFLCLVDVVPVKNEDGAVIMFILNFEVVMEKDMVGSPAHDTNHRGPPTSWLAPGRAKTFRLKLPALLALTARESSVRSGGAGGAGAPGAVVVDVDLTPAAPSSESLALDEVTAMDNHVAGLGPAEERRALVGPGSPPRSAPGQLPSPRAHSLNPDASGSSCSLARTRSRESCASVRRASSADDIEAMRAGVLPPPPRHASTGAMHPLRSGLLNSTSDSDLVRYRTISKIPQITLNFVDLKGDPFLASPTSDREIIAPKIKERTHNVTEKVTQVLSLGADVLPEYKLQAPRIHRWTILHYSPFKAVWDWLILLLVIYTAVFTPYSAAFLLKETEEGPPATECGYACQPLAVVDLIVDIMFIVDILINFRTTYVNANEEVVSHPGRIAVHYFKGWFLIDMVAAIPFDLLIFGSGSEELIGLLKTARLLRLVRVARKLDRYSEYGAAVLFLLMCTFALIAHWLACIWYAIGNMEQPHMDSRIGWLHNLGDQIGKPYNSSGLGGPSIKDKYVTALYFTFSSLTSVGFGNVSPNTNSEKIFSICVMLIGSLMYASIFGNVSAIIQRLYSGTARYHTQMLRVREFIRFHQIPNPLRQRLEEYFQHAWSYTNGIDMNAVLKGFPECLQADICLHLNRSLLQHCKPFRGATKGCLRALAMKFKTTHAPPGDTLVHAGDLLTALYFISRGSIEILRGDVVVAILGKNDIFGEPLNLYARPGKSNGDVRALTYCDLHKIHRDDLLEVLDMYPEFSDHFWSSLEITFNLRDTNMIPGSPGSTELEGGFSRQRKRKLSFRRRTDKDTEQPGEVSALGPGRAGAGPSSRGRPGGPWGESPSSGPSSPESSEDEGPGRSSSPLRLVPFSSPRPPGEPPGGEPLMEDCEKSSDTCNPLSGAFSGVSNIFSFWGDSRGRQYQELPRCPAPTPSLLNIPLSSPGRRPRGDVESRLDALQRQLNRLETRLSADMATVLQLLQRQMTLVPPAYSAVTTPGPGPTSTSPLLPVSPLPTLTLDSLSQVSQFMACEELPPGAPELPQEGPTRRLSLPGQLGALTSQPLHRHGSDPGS

| Compound | hERG current change (%, negative = inhibition) at 1uM |
| --- | --- |
| O=C(NCCC1CCCCN1S(=O)(=O)c1ccc(F)cc1)C(=O)NCCN1CCOCC1 (stereo not drawn) | -14.4% |
| CCOc1ccc(/C(O)=C2/C(=O)C(=O)N(CCOCCO)C2c2cccnc2)cc1 (stereo not drawn) | 23.2% |
| CC(=O)Nc1cccc(C(=O)OC(C)C(=O)Nc2ccc(S(=O)(=O)N3CCCC3)cc2)c1 (stereo not drawn) | 17.4% |
| O=C(NNC(=O)c1ccc([N+](=O)[O-])cc1C(=O)O)c1ccncc1 | 7.54% |
| CN(C(=O)COC(=O)Cc1c(F)cccc1Cl)c1c(N)n(Cc2ccccc2)c(=O)[nH]c1=O | 12.1% |
| CCn1nc(C)cc1C(=O)Sc1cccc(Br)c1 | 11.4% |
| CCOc1ncccc1C(=O)NNC(=O)c1csc(N2CCOCC2)n1 | 21.1% |
| COCCNC(=O)c1snc2ccc(Cl)cc12 | 17.1% |
| Cc1cc(C(=O)CN2C(=O)C(=O)N(Cc3ccco3)C2=O)c(C)n1CCc1ccc(F)cc1 | 0.505% |
| Cc1ccsc1/C=C(\C(=O)c1ccc(OC(C)C)cc1)c1nc2ccccc2o1 | 14% |
| S=C(NCCc1cnc[nH]1)NC1CCCC1 | 27.4% |
| COc1ccc(-n2ncc3c(=O)n(CC(=O)Nc4ccc(S(=O)(=O)N5CCOCC5)cc4)cnc32)cc1 | 5.95% |
| CN1C(=O)C(=O)N(CC(=O)N2CCc3ccccc32)C1=O | 11.2% |
| Clc1ccc(-c2ccc(SCc3ccccn3)nn2)cc1 | 10.8% |
| O=C(NCCC1=CCCCC1)C1CCCN(S(=O)(=O)c2cccc3cccnc23)C1 (stereo not drawn) | -6.25% |
| Cc1ccc(C(=O)O/N=C/c2c(C)nn(C)c2Cl)cc1 | 6.18% |
| CC(=O)COc1ccc2c(c1C)O/C(=C\c1ccco1)C2=O | 13.4% |
| CCOC(=O)CN1C(=O)C(O)(CC(=O)c2ccccn2)c2ccccc21 (stereo not drawn) | 7.77% |
| CCn1cc(Cl)c(C(=O)Nc2ccc(OC)c(OC)c2)n1 | 11.4% |
| CN1CCN(C=NC2=NN(c3cccc(C(F)(F)F)c3)CC2)CC1 | 0.21% |
| COC(=O)c1ccc(/C=N/NC(=O)CC(=O)NC2CCCCC2)cc1 | 22% |
| N/C(=N\OC(=O)CSc1ccccc1)c1ccncc1 | -1.19% |

| Compound | hERG current change (%, negative = inhibition) at 1uM |
| --- | --- |
| Cc1ccc(S(=O)(=O)N(CC(=O)NCc2ccccc2Cl)C(=O)N2CCN(C)CC2)cc1 | -7.39% |
| COc1cccc(Cn2cnc3c(sc4nc(C)cc(C)c43)c2=O)c1 | 11.3% |
| COc1ccccc1-c1cc(-c2ccc(C)cc2)nc(SCc2nnc(-c3ccccc3)o2)c1C#N | 15.9% |
| COc1ccc(CN2CC(C(=O)NCCC(C)C)CC2=O)cc1 (stereo not drawn) | 15.3% |
| CCN(Cc1cccs1)C(=O)c1cccc(S(=O)(=O)N2CCN(C)CC2)c1 | -1.76% |
| CC1CCc2[nH]c3ccc(C(=O)N(C)CC(=O)Nc4ccccc4Br)cc3c2C1 (stereo not drawn) | 12.6% |
| COc1ccc(-c2nc3n(n2)C(c2ccncc2)C(C(N)=O)=C(C)N3)cc1 (stereo not drawn) | 9.3% |
| COc1ccccc1/C=C1\SC(=S)N(CCC(=O)NCCCn2ccnc2)C1=O | 2.94% |
| COc1ccc(CCNC(=O)COc2ccc(-c3ccc(C)cc3)cc2)cc1OC | -3.64% |
| O=C(O)c1cccc(-c2ccc(/C=c3/sc4nc5ccccc5n4c3=O)o2)c1 | 14.2% |
| COc1ccc(Nc2nc(C(=O)NCc3ccco3)cs2)cc1 | 4.7% |
| CC(=O)Nc1ccc(S(=O)(=O)Nc2nc3ccccc3nc2Nc2cccc(O)c2)cc1 | 11% |
| O=[N+]([O-])c1ccc(O)c(C=Nc2cccc3ncccc23)c1 | 12.3% |
| O=C(NN=C1CCCCCCC1)c1ccc(F)cc1 | 9.56% |
| O=C(COC(=O)c1cnccn1)Nc1ccc(Cl)cc1 | 8.01% |
| Cc1ccc2nc(Cl)c(/C=N/NC(=O)c3ccccc3O)cc2c1 | 10.4% |
| CCOc1ccc(N/C(SC)=C(/C#N)C(N)=O)cc1 | 9.27% |
| O=C(NCCC1=CCCCC1)c1cc(COc2ccc(F)cc2Cl)on1 | 12% |
| CC(C)NC(=O)[C@]1(C)CCC[C@@]2(C)C3CC[C@@]4(C)C[C@]3(CCC21)CC4=O (stereo partly drawn) | 11.8% |
| CCN(C(=O)Cn1c(=O)n2nc(CCn3nc(C)cc3C)nc2c2ccccc21)c1cccc(C)c1 | -2.44% |
| CCCn1c(SCC(=O)Nc2ccc(C)c(S(=O)(=O)N3CCOCC3)c2)n[nH]c1=O | 11.3% |
| CC(=O)Nc1ccc(OCC(=O)c2ccc(C)cc2C)cc1 | 4.25% |

| Compound | hERG current change (%, negative = inhibition) at 1uM |
| --- | --- |
| Cc1cc(C)n(CC(O)CN2c3ccccc3Sc3ccccc32)n1 (stereo not drawn) | 15.5% |
| O=C(Nc1cc(N2CCOCC2)ncn1)NC1(C(F)(F)F)Oc2ccc(Cl)cc2O1 (stereo not drawn) | 6.46% |
| CCn1c(SCC(=O)c2c(N)n(C3CC3)c(=O)[nH]c2=O)nnc1-c1ccccc1OC | 10.7% |
| Cc1sc2ncnc(SCC(=O)NNC(=O)c3ccco3)c2c1C | -0.404% |
| O=c1cc(-c2ccc3c(c2)OCO3)oc2ccccc12 | 3.12% |
| CCCCCCCCCNC(=O)[C@H](NC(=O)COc1ccccc1)[C@@H]1NC(C(=O)OC)C(C)(C)S1 (stereo partly drawn) | 20.4% |
| COc1ccc(CNC(=O)C(c2ccncc2)N(C(=O)Cc2cccs2)c2ccccc2C)cc1 (stereo not drawn) | 0.574% |
| COC(=O)c1cn(C)c2ccc(S(=O)(=O)N3CCCC3)cc2c1=O | 1.28% |
| O=C(NCCc1ccc(Cl)cc1)C(=O)Nc1cc2c3c(c1)CC(=O)N3CCC2 | 9.31% |
| CN(C)C(=O)CSc1nc2ccc(N3C(=O)c4ccccc4C3=O)cc2s1 | 10.8% |
| CCOC(=O)C1CCN(C(=O)Nc2ccc3c(c2)nc(C)n3C)CC1 | 7.22% |
| O=C(Nc1ccc2ccccc2c1)N1CCCN(CCOc2ccccc2)CC1 | -48.1% |
| Cc1c(C#N)c2ccccc2n1CC(=O)N1CCCC1 | 10.5% |
| C/C(=C\C(=O)c1ccc(Br)cc1)NCc1ccc(C)cc1 | 11% |
| CC(C)CCn1cnc2c(oc3nc4c(cc32)CCCC4)c1=O | 3.93% |
| CCC(C)NC(=O)C1(C)CCC(=O)N1CCc1ccc(OC)c(OC)c1 (stereo not drawn) | -7.7% |
| CCOC(=O)c1ccc(N2C(=O)C3CCOc4ccccc4C32)cc1 (stereo not drawn) | 14% |
| CCc1nc(SCc2cccnc2)[nH]c(=O)c1C | 18.1% |
| N#Cc1ccc(-c2ccc(OCC(O)CN3CCOCC3)cc2)cc1 (stereo not drawn) | 7.69% |
| Cc1cc(C)n(S(=O)(=O)c2cc(C(=O)O)c(Cl)cc2Cl)n1 | 8.76% |
| COc1ccc(CN2CCNC(=O)C2CC(=O)NCc2cn3ccc(C)cc3n2)c(OC)c1 (stereo not drawn) | 2.64% |
| Cc1ccccc1N(CC(=O)NCc1ccco1)C(=O)CCC(=O)Nc1nccs1 | 11.2% |

| Compound | hERG current change (%, negative = inhibition) at 1uM |
| --- | --- |
| COCCCN=Cc1c(C)[nH]n(-c2ccc(Br)c(C)c2)c1=O | 5.05% |
| CC(C)c1nnc(NC(=O)CCC(=O)Nc2ccc(F)cc2)s1 | 17.5% |
| CCc1ccc(N(CC(=O)NC2CCCCC2)C(=O)CNC(=O)c2ccco2)cc1 | 4.93% |
| CS(=O)(=O)c1ccc2nc(NC(=O)c3ccccc3)sc2c1 | 10.4% |
| CCN1CCN(C(=O)c2ccc3c(=O)n(C4CCCC4)c(=S)[nH]c3c2)CC1 | 10.5% |
| CCOC(=O)C1(CCCc2ccccc2)CCN(C(=O)CCn2cnnn2)CC1 | 0.61% |
| O=C(c1cc(-c2cccnc2)nc2ccc(Cl)cc12)N1CCC2(CC1)OCCO2 | 5.12% |
| COc1ccccc1C(=O)Oc1ccc(C(C)C)cc1 | -1.15% |
| O=C(CSc1n[nH]c(=O)n1C1CC1)NCc1ccccc1 | 9.68% |
| COc1ccc(CCNc2oc(-c3ccccc3OC)nc2C#N)cc1OC | 11.7% |
| Cc1nn(-c2ccc(F)cc2)c2nc(N)c(C#N)c(-c3ccc(O)c(O)c3)c12 | 9.42% |
| O=c1cc(N2CCN(Cc3ccccc3)CC2)c(-c2ccccc2)n[nH]1 | 20.2% |
| COc1ccc(/C=C(/NC(=O)c2ccco2)C(=O)N2CCCCC2)cc1 | 8.14% |
| Cc1ncc(CO)c2cc(S(=O)(=O)c3ccc(F)cc3)c(=O)oc12 | 17.8% |
| CC(C)CCn1c(CN2CCOCC2)nc2c1c(=O)n(C)c(=O)n2C | 7.31% |
| CCS(=O)(=O)c1ccc2oc(SCC(=O)NC3CCCC(C)C3C)nc2c1 (stereo not drawn) | 1.7% |
| Cc1nc(NCC2CCCO2)c2nnn(Cc3ccccc3)c2n1 (stereo not drawn) | 10% |
| C=CCNc1ncnc2ccc(Br)cc12 | 12.4% |
| COc1ccc(N2CC(C(=O)Nc3nc4ccc(S(C)(=O)=O)cc4s3)CC2=O)cc1 (stereo not drawn) | 18% |
| O=C(N/N=C1/CCCc2ccccc21)c1cc([N+](=O)[O-])cc([N+](=O)[O-])c1 | -7.01% |
| c1csc(CNc2ncnc3sccc23)c1 | -1.9% |
